# The campaign covered roughly 52,000 compounds. About 4,300 (8.3%) were called active. Cut-off read from the data, not from the text of the source: active = survival mostly below about 52% (no sharp cut-off); inactive = mostly above about 56%. The list shows a part of the results.
# System: DeltatarO mutant
# Test: growth inhibition of S. aureus wild type versus tarO mutant, primary screen, teichoic acid synthesis inhibitors, RN4220, OD600 (AID 463173)
# Conditions: OD600, 18 h, stronger effect = lower value, screened at 18.75 µg/mL (by protocol)
row,Structure (SMILES),survival
1,COc1ccc2[nH]cc(S(=O)(=O)c3ccc(C)c(C)c3)c(=O)c2c1,inactive: 88%
2,COC(=O)Cn1cnc2c(cnn2-c2ccc(OC)cc2)c1=O,inactive: 100%
3,COc1ccc(Cn2c(=O)[nH]c3cc(C(=O)N4CCN(c5cc(Cl)ccc5C)CC4)ccc3c2=O)cc1,inactive: 79%
4,COc1ccccc1-c1noc(-c2ccc(NC(C)C)c([N+](=O)[O-])c2)n1,inactive: 121%
5,Cc1cc(C)cc(NC(=O)CCCc2nc(-c3ccccc3Cl)no2)c1,inactive: 89%
6,CSc1nc2sc3c(c2c(=O)n1-c1ccccc1)CCC(C(C)(C)C)C3 (stereo unspecified),active: 18%
7,Cc1ccc(NC(=O)C(C)Sc2nnc(C)n2C)cc1 (stereo unspecified),inactive: 97%
8,Fc1ccc(-c2ccc(NCc3ccccc3)nn2)cc1,inactive: 94%
9,CCc1ccc(NC(=O)Cn2cc(S(=O)(=O)N3CCCC3)c(S(=O)(=O)N3CCCC3)c2)cc1,inactive: 91%
10,O=C(Cn1cc(I)c(=O)[nH]c1=O)N1CCOCC1,inactive: 78%
11,CC(C)NC(=O)CCN1C(=O)c2ccccc2Sc2ncccc21,inactive: 72%
12,O=C(NC1CC(=O)N(c2ccc(F)cc2)C1)C1CC1 (stereo unspecified),inactive: 82%
13,Cc1ccc(NC(=O)Cn2nnc(C(=O)NCc3ccc4c(c3)OCO4)c2N)cc1Cl,inactive: 103%
14,CCCCOC(=O)c1ccc(NC(=O)c2cnc3ccc(C)cn3c2=O)cc1,inactive: 97%
15,CCN(c1cccc(C)c1)c1ncnc2c1cnn2-c1cccc(Cl)c1,inactive: 70%
16,CCn1c(=O)cc(OCC(=O)N2CCN(c3ccc(F)cc3)CC2)c2ccccc21,inactive: 80%
17,COc1ccc(CN2COc3ccc4c(-c5ccccc5)cc(=O)oc4c3C2)cc1OC,inactive: 55%
18,CCOc1ccc(C/C(N)=N\n2cnnc2)cc1,inactive: 94%
19,Cc1nn(C(=O)c2ccc(Br)cc2)c(C)c1Sc1ccccc1,active: 2%
20,Cn1c(=O)n(CCCc2ccccc2)c(=O)c2c1nc1n2CCN1c1ccc(F)cc1,inactive: 55%
21,CCOC(=O)c1cc2c(=O)n3ccccc3nc2n(Cc2ccco2)c1=NC(=O)c1ccc(OCC)cc1,active: 37%
22,O=C(c1cc(-c2ccc(O)cc2)on1)N1CCN(c2ccccc2)CC1,inactive: 96%
23,COc1ccc(Cl)cc1NC(=O)CSC1=Nc2ccccc2C2=NC(CC(=O)NCc3cccs3)C(=O)N12 (stereo unspecified),inactive: 75%
24,O=C(NCc1ccccc1)c1cnc(N2CCCCC2)c2ccccc12,inactive: 76%
25,CCOc1ccc2[nH]c3nc(SCC4CCCO4)nnc3c2c1 (stereo unspecified),inactive: 98%
26,COc1cccc(Nc2nc3ccc(C)cc3nc2-n2nc(C)cc2C)c1,inactive: 88%

# From PubChem BioAssay AID463173 (ICCB-Longwood Screening Facility, Harvard Medical School, 2010)
